These results are taken from the supplement of paper PMC12632987.

B1: traf2_out_20_3_2065 (protein)
chain: EELEKKLEEELEKAIKLLKEAAKKADKETAKKLEELIKRLKKSKELSYDDRLVVLSEIRRELLKLAEEAKAKGDEELAKLLEEAADALNKAMQLTYEIIE
B2: traf2_out_15_180_1326 (protein)
chain: MTEEELKKRIELANEVADKVDDKLAALLAAHPDLSPAERAALRALARSLTTLLMNGEEEEAAAALEAAEARLSPRAAAVARELAEFIKEVVKKAKEELEK
B3: traf2_out_17_162_1528 (protein)
chain: SALAARLAALEAELAALEARLAELEARLAEVDALSKEELTDLLVEASEARRRARALAEELEKLRAEIGAERAQALIDRARAIAERLQRIANTLYKALEKK
B4: traf2_out_6_156_2449 (protein)
chain: TLEEILKETKEKIKKGIEELAKAPEEKKIAEISRIAGAAYRGLQRAREAGASLEELKAFAEELKKVAEEEAEKAGLDEKTKNLLLSSLNAVFDVALAEAA
B5: traf2_out_5_63_2356 (protein)
chain: SEREELTALARRADELARRLLEAAEAGKEEEVEKLLEEAAEDPELARLVLGILRGEARYYELLGTDPERAAIARELAERLERLMEEKERREREERERRLR
B6: traf2_out_6_156_2437 (protein)
chain: SVEEIEAATKAELEKLIEELAKASEEKKIFYINRIAGTVYRALQRLREAGASLEELRAFAERIRAFLKEAADKAGLDESTKNLLLSSVNAVFDVALASAA
B7: traf2_out_3_89_2288 (protein)
chain: SPETEAKIAEMRAIIDRYVAGFAKSARRVAKEMIAEGHSLDTLRGVLTAARNALIEEIRERAREAGLDEETIAELTADAAARLDAIVDAVVAEAAAARAA
B8: traf2_out_18_117_1770 (protein)
chain: SEREEIIARLEALAAELDRAASELGKAVLEHWDELTPEERSEAMDVLADLSAVRREALLLIHEIRERGLPLEEARARAEALEARAAAALAAAAARLERIK
B9: traf2_out_20_3_2252 (protein)
chain: EELRKEAEKALEEIEALLAEAAPRLPPEDAAEARELLAKAREYFETDYTDALVYISELRRLALERAQRARAAGDAETAALLERLAEAAGRAAYYLYKIIE
B10: traf2_out_20_3_2199 (protein)
chain: SELEEELEKALEEALKLLKEAAALADPETAKVLEELAKRLEESRELSYEDRLVVLSEIRRQVLLLAQQARAAGNEELAAVLDEAADALQRAMNLVYKIIE
B11: traf2_out_6_169_2485 (protein)
chain: SMKEELKKEAERHLERAKELEKIAKTIYKQVIENNDLENLENYILALETLKSAADHHYDKAIAKLKELGEEEKAEEVEKEREKVKKEMEKMIEEVKKLKE
B12: traf2_out_17_162_1511 (protein)
chain: SEIEELKKKFEEELKELEEELERLEKKMERLKELSKEEISDLLVEASEARRKALELAEEIEKNKEKLGEEEAEKLKDRAEEIAERLQRIANKAYKELLKK
B13: traf2_out_11_155_747 (protein)
chain: EEKKKLNQEMNNKINDLFDKAREEALKIAEEAAEEHPEHAEEIKEKIEETKGFSYRSFILQMIELFKELGLEEYAKKLEKLLEETQKKANEIVQETEKKL
B14: traf2_out_11_155_729 (protein)
chain: EKKREAQNKIVDHNLEVGDALLAEVEAIIAEVAAEDPEVAAELRAVVAEHLKYSATSAARAAIDLLRERGYEEQAARLEAALEAAQKEKSEFIKKVEEEL
B15: traf2_out_17_178_1715 (protein)
chain: TKEAARAEISAATDEMIDLAEAAAARLLAIAEAEGSLSPEELAELRRARRLGSARTTRALMRRAIPRSPSAAEVQALLDDFEKRYAELSKKIAEALKKYE
B16: traf2_out_17_162_1633 (protein)
chain: SPYEERLRRLEEELERLREKLEELEKKAENIEKLSKEELTDLLVEASEARRRARELAEEIRRLREERDDPRLEELLEEAERLAEKFQRIANKFYKKLLEK
B17: traf2_out_18_3_1937 (protein)
chain: KEEELKKISEKIDEIIDEAEAKAREALARLKERHPELAAEAERLEALLDAGAGPFGILEAVAELFRRAGDEEAAKEIEEFLREKRKEMQELIDKYEELRK
B18: traf2_out_17_60_1760 (protein)
chain: GPEERKKELAEEARRKIEEARRLVEEVRKKLEAGTLTADEAMDYLVELSEKRRELRRLAEELRAEGPEFEPLIEELERAIEEVERTMNEVGKELERLLAA
B19: traf2_out_15_48_1350 (protein)
chain: STEKLRETAREIADLIDETLDEVAEELEKLRPEAAPELKPLIDEAIDIASKKKSINDTIATLEEAQKKASPELAAKLQALIDRLRATRKEASKLFNETEK

Whole data set: some 1,800 sequences, median “median log2 fold change of GCK-ALFA target abundance (FLAG IP / Myc IP barcode read proportion)” near 0.14, cut for the lowest 2% near -0.84. Some of the results follow.

The target of the assay is T1, TRAF2, Q12933.
T1 chain: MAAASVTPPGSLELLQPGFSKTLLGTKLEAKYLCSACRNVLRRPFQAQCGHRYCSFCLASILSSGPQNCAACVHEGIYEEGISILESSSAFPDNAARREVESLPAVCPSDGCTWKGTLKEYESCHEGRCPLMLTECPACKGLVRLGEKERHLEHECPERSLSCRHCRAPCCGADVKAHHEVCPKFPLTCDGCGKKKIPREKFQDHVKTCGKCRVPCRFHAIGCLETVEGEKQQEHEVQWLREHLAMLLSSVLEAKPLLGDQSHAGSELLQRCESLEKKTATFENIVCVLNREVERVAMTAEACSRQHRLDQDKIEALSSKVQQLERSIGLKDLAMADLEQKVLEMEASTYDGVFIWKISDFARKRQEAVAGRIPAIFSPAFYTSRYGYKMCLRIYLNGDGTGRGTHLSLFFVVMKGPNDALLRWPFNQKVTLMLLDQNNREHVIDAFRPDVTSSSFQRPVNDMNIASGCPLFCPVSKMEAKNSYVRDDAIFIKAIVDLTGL
The experiment in a line: median log2 fold change of GCK-ALFA target abundance (FLAG IP / Myc IP barcode read proportion) (log2 ratio); each designed protein is fused to an ALFA-tag nanobody in HEK293 cells to bring the named protein to FLAG-tagged glucokinase (GCK); Myc marks an untargeted standard; higher = target protein stabilised (more abundant). The settings on record: target protein: 3xFLAG-MCP-GCK-ALFA reporter; HEK293 landing pad (RPLP). In short, it runs like this:
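An ALFA-nanobody-fused binder library was recombined into HEK293 landing-pad cells and induced with 2 μg mL^−1 doxycycline. Cells were transfected with a plasmid expressing a FLAG-tagged target and a Myc-tagged standard. After 48 h, lysates underwent anti-FLAG and anti-Myc immunoprecipitation, and circular RNA barcodes were reverse transcribed, amplified and sequenced. Target abundance is the per-binder median log2 ratio of FLAG to Myc barcode read proportions. Barcodes needed ≥10^−7 proportion in both replicates, binders ≥3 barcodes per replicate, and a 10^−6 pseudocount was added; the two replicates were pooled.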
On to B1, for which the “median log2 fold change” value turned out to be 0.378.
The result for B2 reads 0.218; that for B3, 0.314; that for B4, 0.117.
Next, B5: 0.448; B6: 0.157.
Next, B7: -0.32; B8: 0.0919; B9: 0.218.
With B10, the “median log2 fold change” value turned out to be 0.228.
The result for B11 reads 0.0614.
The result for B12 reads 0.522; that for B13, 0.371.
Take B14: the “median log2 fold change” value turned out to be 0.277.
Next, B15: -0.171.
Next, B16: 0.135; B17: 0.0939.
The result for B18 reads 0.112.
For the molecule B19, the “median log2 fold change” value was 0.561.
